Experimental findings from PMC4336329 (PLoS ONE, 2015) are described below.

The campaign covered roughly 310,000 compounds. About 2,200 (0.71%) showed an effect of 50% or more. Effects have a minus sign here. The list shows a part of the results.

Sequence of human ether-à-go-go-related gene (hERG) potassium channel (Q12809 whole entry, looked up): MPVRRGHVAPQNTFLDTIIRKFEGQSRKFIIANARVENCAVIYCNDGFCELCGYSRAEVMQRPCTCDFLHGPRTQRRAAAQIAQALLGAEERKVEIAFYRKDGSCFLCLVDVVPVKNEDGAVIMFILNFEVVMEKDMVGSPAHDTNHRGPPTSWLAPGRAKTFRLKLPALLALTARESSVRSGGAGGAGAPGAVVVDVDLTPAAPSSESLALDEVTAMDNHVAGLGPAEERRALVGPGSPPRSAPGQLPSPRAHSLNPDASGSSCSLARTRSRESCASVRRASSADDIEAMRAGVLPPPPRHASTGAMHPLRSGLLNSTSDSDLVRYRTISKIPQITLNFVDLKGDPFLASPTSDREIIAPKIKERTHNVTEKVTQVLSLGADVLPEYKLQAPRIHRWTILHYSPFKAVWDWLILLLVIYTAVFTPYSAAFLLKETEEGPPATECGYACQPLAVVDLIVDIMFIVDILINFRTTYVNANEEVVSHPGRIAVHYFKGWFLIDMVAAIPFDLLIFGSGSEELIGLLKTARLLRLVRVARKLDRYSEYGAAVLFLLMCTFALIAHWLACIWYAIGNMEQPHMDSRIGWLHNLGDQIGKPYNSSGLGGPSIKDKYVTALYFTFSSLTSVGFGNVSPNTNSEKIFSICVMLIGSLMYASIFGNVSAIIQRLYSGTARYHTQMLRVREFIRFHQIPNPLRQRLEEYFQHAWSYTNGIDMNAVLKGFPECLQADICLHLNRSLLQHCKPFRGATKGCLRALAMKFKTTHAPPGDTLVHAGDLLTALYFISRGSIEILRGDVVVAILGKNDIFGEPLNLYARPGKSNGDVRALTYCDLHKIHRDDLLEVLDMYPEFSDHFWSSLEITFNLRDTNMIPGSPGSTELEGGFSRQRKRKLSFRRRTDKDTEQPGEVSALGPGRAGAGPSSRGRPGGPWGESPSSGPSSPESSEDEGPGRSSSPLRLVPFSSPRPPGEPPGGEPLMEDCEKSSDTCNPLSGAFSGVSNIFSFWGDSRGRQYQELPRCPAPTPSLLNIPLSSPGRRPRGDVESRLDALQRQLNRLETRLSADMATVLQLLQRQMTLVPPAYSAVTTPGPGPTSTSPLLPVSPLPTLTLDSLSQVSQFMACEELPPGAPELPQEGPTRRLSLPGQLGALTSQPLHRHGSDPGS

The assay concerns the target human ether-à-go-go-related gene (hERG) potassium channel (human, UniProt Q12809). Kind of assay: primary screen, population patch clamp on CHO cells stably expressing hERG.
For `CN(C)S(=O)(=O)c1ccc(C(=O)NCC2CC2(Cl)Cl)cc1` (centres unmarked), the “hERG current change (%, negative = inhibition) at 1uM” value stood at 14.4%.

As for `Cc1cc(-n2cccn2)ccc1CN1CCN(C2CCCC2)C(CCO)C1` (centres unmarked), the “hERG current change (%, negative = inhibition) at 1uM” value is listed as -54.2%.

In the case of `Cc1cc(C(=O)CSc2nc3ccc(Cl)cc3[nH]2)c(C)n1CC1CCCO1` (centres unmarked), the “hERG current change (%, negative = inhibition) at 1uM” value was found to be 21.2%.

Consider `CC1CCc2c(sc(NC(=O)c3ccccc3C(=O)O)c2C#N)C1` (centres unmarked), for which the “hERG current change (%, negative = inhibition) at 1uM” value stood at 10.6%.

For `N#Cc1ccc(S(=O)(=O)Nc2ccc3ccccc3n2)cc1`, the “hERG current change (%, negative = inhibition) at 1uM” value was determined as 6.48%.

As for `O=C(O)c1ccc(NC(=S)NC(=O)C(c2ccccc2)c2ccccc2)cc1`, the “hERG current change (%, negative = inhibition) at 1uM” value was 5.92%.

As for `N#C/C(=C\c1c[nH]c2ccccc12)C(=O)NC1CC1`, the “hERG current change (%, negative = inhibition) at 1uM” value was 13.8%.

As to `CC(Oc1ccc(Br)cc1)C(=O)N1CCC(C(N)=O)CC1` (centres unmarked), the “hERG current change (%, negative = inhibition) at 1uM” value was -17%.

For the compound `O=C(Nc1ccc(F)cc1F)c1cccn1-c1ncc(C(F)(F)F)cc1Cl`, the “hERG current change (%, negative = inhibition) at 1uM” value is 14.8%.

Regarding `CCOC(=O)c1cnc(-n2nc(C)cc2C)nc1Nc1cccc(C(C)=O)c1`, the “hERG current change (%, negative = inhibition) at 1uM” value is recorded as 7.48%.

For `COc1ccc(CNCc2ccccc2[N+](=O)[O-])cc1OC.O=C(O)C(=O)O`, the “hERG current change (%, negative = inhibition) at 1uM” value is recorded as 5.99%.

On to `O=C(NC(=S)Nc1ccc(CN2CCOCC2)cc1)c1ccc([N+](=O)[O-])cc1Cl`, for which the “hERG current change (%, negative = inhibition) at 1uM” value is reported as 8.62%.

For `O=C(NC1CCCC1)C(c1ccc(F)cc1)N(Cc1ccc(F)cc1)C(=O)c1ccn[nH]1` (centres unmarked), the “hERG current change (%, negative = inhibition) at 1uM” value stood at 2.87%.

Regarding `CCN(CC)C(=O)c1cn(CCC#N)nc1-c1ccc(F)cc1`, the “hERG current change (%, negative = inhibition) at 1uM” value amounted to 0.959%.

In the case of `O=C(CSc1ccc2nnc(-c3cccnc3)n2n1)NCc1ccco1`, the “hERG current change (%, negative = inhibition) at 1uM” value is -8.86%.

In the case of `Cl.O=C(CN1CCCC1)Nc1ccc2c(c1)CCC2`, the “hERG current change (%, negative = inhibition) at 1uM” value was 11.1%.

For `CCC1(C)Cc2c(sc3c2c(=O)n(C)c2nnc(SCC(=O)c4ccccc4)n32)CO1` (centres unmarked), the “hERG current change (%, negative = inhibition) at 1uM” value was -5.17%.

For the compound `CC(C)(C)C1CCC(=NNC(=S)Nc2cccnc2)CC1` (centres unmarked), the “hERG current change (%, negative = inhibition) at 1uM” value was found to be 12%.

In the case of `Cc1ccc(CCNC(=O)CN2C(=O)COc3ccc(S(=O)(=O)N4CCCCC4)cc32)cc1`, the “hERG current change (%, negative = inhibition) at 1uM” value amounted to 12%.

Consider `Cc1cc(C)n(Cc2ccc(C(=O)NCCC3=CCCCC3)o2)n1`, for which the “hERG current change (%, negative = inhibition) at 1uM” value worked out at 17.8%.

As for `CCOC(=O)C(C)Oc1cc(Cl)c(C=O)cc1OC` (centres unmarked), the “hERG current change (%, negative = inhibition) at 1uM” value was 0.524%.

As to `COCCNC(=O)C1Nc2ccc(C(F)(F)F)cc2C2C=CCC12` (centres unmarked), the “hERG current change (%, negative = inhibition) at 1uM” value is given as 10%.

Consider `CC1CCCN(S(=O)(=O)c2cccc([N+](=O)[O-])c2)C1` (centres unmarked), for which the “hERG current change (%, negative = inhibition) at 1uM” value amounted to 7.56%.

Turning to `CC(=O)Nc1ccc(NC(=O)CSC2=NS(=O)(=O)c3ccccc3N2)cc1`, the “hERG current change (%, negative = inhibition) at 1uM” value came to 3.72%.

With `FCCCOc1ccc(/C=N/OCc2c(Cl)cccc2Cl)cc1`, the “hERG current change (%, negative = inhibition) at 1uM” value stood at 2.97%.

As to `CCOC(=O)c1ccc(NC=C2C(=O)OC3(CCCCC3)OC2=O)cc1`, the “hERG current change (%, negative = inhibition) at 1uM” value is on record as 14.8%.

With `CCOC(=O)CCc1c(C)c2ccc(OC(C)C(=O)OCC)c(C)c2oc1=O` (centres unmarked), the “hERG current change (%, negative = inhibition) at 1uM” value worked out at 6.26%.

In the case of `CC(C)c1ccc(N(C(=O)C(F)(F)F)C(C(=O)NC2CCCCC2)c2ccncc2)cc1` (centres unmarked), the “hERG current change (%, negative = inhibition) at 1uM” value was 0.463%.

Turning to `COc1ccc(CN2C(=O)CCC2(C)C(=O)NC2CCCC2)c(OC)c1` (centres unmarked), the “hERG current change (%, negative = inhibition) at 1uM” value stood at 2.66%.

Regarding `Cc1ccccc1NS(=O)(=O)c1cccc(-c2nnc(-c3ccccc3)o2)c1`, the “hERG current change (%, negative = inhibition) at 1uM” value is -18.9%.

For `CCCCOc1ccc(Cn2c(=O)oc3ccccc32)cc1`, the “hERG current change (%, negative = inhibition) at 1uM” value was determined as 11.6%.

For `CCCCCn1c(=O)[nH]c2cc(C(=O)NCc3ccco3)ccc2c1=O`, the “hERG current change (%, negative = inhibition) at 1uM” value came to 8.89%.

Turning to `Cl.N=C(c1cccc([N+](=O)[O-])c1)N1CCCCCC1`, the “hERG current change (%, negative = inhibition) at 1uM” value came out at 5.77%.

In the case of `CCOC(=O)C(C)n1cnc2c(nnn2-c2ccccc2)c1=O` (centres unmarked), the “hERG current change (%, negative = inhibition) at 1uM” value was -4.87%.

In the case of `C=CCNC(=S)NNc1nc2c(c(=O)[nH]1)C1(CCCC1)Cc1ccccc1-2`, the “hERG current change (%, negative = inhibition) at 1uM” value is 14.1%.

Turning to `COc1cccc(Nc2nnc(SCC(=O)N3CC(=O)Nc4ccccc43)s2)c1`, the “hERG current change (%, negative = inhibition) at 1uM” value was found to be 8.6%.

As to `CCOC(=O)C1(Cc2ccccc2)CCCN(Cc2cccc(C(C)=O)c2)C1` (centres unmarked), the “hERG current change (%, negative = inhibition) at 1uM” value came to 10.4%.

Turning to `Cc1nn(CC(=O)NCCc2ccccc2)c(=O)c2ccccc12`, the “hERG current change (%, negative = inhibition) at 1uM” value is on record as 0.516%.

`O=C(COc1ccccc1[N+](=O)[O-])Nc1ccc2c(c1)OCO2`: the “hERG current change (%, negative = inhibition) at 1uM” value is 11.5%.

As to `C#C[C@]1(O)CC[C@H]2[C@@H]3CCC4=CC(=O)CC[C@@H]4[C@H]3CC[C@@]21C`, the “hERG current change (%, negative = inhibition) at 1uM” value was determined as 21%.

Take `Cc1ccc(S(=O)(=O)NCCC(=O)N2CCC(Cc3ccccc3)CC2)cc1`: the “hERG current change (%, negative = inhibition) at 1uM” value is given as 6.43%.

For `Nc1nc2nn(-c3ccccc3)nc2c(=O)[nH]1`, the “hERG current change (%, negative = inhibition) at 1uM” value stood at 12.1%.

Regarding `CC(Nc1nc(-c2ccc(F)cc2)cs1)c1nc2cc(C(F)(F)F)ccc2n1CCOCCO` (centres unmarked), the “hERG current change (%, negative = inhibition) at 1uM” value is listed as 4.96%.

Consider `O=C(NC(Cc1ccccc1)C(=O)O)/C(=C/c1ccc([N+](=O)[O-])cc1)NC(=O)c1ccco1` (centres unmarked), for which the “hERG current change (%, negative = inhibition) at 1uM” value is reported as 10.8%.
